According to paper PMC4336329 (PLoS ONE, 2015):
The campaign covered roughly 310,000 compounds. About 14,000 (4.5%) showed an effect of 50% or more. The effect is printed as a negative number. The list shows a part of the results.

What follows are compounds tested against human ether-à-go-go-related gene (hERG) potassium channel (human, UniProt Q12809) (assay: primary screen, population patch clamp on CHO cells stably expressing hERG).
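Further: peak tail current of the secondary pulse compared with the same well before compound.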

Chain of human ether-à-go-go-related gene (hERG) potassium channel (Q12809 whole entry, looked up): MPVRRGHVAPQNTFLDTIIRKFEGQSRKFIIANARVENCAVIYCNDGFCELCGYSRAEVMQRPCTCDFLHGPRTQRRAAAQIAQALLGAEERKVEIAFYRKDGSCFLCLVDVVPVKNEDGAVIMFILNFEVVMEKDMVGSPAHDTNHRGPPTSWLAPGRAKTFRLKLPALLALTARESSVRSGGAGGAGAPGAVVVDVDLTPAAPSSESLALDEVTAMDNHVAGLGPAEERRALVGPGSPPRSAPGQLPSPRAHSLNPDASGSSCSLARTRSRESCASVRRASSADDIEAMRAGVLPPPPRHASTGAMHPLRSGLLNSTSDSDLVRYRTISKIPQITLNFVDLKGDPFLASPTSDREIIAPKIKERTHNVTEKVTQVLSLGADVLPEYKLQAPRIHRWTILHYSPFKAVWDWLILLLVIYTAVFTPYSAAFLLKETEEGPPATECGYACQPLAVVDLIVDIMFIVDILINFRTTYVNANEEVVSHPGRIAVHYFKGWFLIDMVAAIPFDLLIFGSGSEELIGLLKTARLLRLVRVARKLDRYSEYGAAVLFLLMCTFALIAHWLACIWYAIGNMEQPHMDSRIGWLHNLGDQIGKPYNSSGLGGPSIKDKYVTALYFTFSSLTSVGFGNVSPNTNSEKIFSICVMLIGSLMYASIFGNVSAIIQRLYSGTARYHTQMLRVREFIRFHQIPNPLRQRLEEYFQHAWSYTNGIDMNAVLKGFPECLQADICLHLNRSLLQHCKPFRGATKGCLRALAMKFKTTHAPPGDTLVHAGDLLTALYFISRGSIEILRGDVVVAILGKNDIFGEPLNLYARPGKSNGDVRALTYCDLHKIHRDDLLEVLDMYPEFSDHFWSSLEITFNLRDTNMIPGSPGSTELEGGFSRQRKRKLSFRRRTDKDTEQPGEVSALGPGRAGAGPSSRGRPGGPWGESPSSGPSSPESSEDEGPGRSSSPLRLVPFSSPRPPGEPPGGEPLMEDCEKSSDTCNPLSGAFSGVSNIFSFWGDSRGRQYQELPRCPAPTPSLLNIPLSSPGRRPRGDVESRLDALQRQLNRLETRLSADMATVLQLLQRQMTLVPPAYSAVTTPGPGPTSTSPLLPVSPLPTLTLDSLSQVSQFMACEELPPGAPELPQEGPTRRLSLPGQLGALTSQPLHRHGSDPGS

Row | SMILES | hERG current change (%, negative = inhibition) at 10uM
1 | O=C(NC1=C(NC2CCS(=O)(=O)C2)C(=O)c2ccccc2C1=O)c1ccccc1 (stereo not drawn) | -7.31%
2 | CC1(C)Cc2c(sc(/N=C/N3CCCCC3)c2C#N)C(C)(C)N1 | -31%
3 | COc1cccc(/C=C2\C=C(c3ccc(C)cc3)OC2=O)c1OC(C)=O | 12.2%
4 | COc1ccc(CCNC2CCc3ccccc3C2)cc1 (stereo not drawn) | -56%
5 | C=CCn1c(C)cc(-c2csc(NC(=O)CCc3nc4ccccc4c(=O)[nH]3)n2)c1C | -23.8%
6 | N#CCCNc1c(Cl)cc(Cl)cc1C(=O)O | 10.5%
7 | Cc1nn(-c2ccccc2Cl)c(Cl)c1/C=N/Nc1cccc(C(=O)O)c1 | 21.1%
8 | O=C(Cn1cc(/C=N/NC(=O)c2cccc3ccccc23)c2ccccc21)Nc1ccc(F)cc1 | 11.7%
9 | O=C(COC(=O)c1ccc(Cl)nc1)Nc1ccccc1OC(F)F | -9.04%
10 | Cc1ccc(-n2nc3c(=S)[nH]nc(C)c3c2C)cc1 | 14.3%
11 | O=C(Nc1ccc2c(c1)OCO2)C1CC(=O)N(c2ccccc2)C1 (stereo not drawn) | 20.7%
12 | Cc1ccc(C(=O)NCC(=O)N2CCCCCCC2)cc1 | 7.06%
13 | Cn1c(NCc2ccccc2)cc(=O)n(C)c1=O | 7.29%
14 | COC(=O)Cn1cnc2c(cnn2-c2ccc(OC)cc2)c1=O | 15.7%
15 | O=[N+]([O-])c1ccc(Oc2cnc3ccccc3n2)cc1 | 7.44%
16 | CCOc1ccc(CCN2C(=O)C3C4CCC(O4)C3C2=O)cc1OCC (stereo not drawn) | 9.07%
17 | CC(C)[C@H](NC(=O)C1(c2ccccc2)CCN(C(=O)OC(C)(C)C)CC1)C(=O)O | -10.2%
18 | CC(=O)N1c2ccc(S(=O)(=O)N3CCC(C(=O)Nc4ccc(F)cc4)CC3)cc2CC1C (stereo not drawn) | 20.6%
19 | Cc1cccc(NC(=O)C(Cc2ccccc2)c2nn[nH]n2)c1C (stereo not drawn) | 9.83%
20 | O=C(CCC(=O)NC1CCCCCCC1)Nc1nnc(C(F)(F)F)s1 | -8.52%
21 | O=C(OCc1nnc(-c2ccc(Br)cc2)o1)c1ccco1 | -27.6%
22 | O=C(Nc1ccn(Cc2ccc(Cl)cc2)n1)c1ccc2c(c1)OCO2 | -5.17%
23 | COc1ccc(S(=O)(=O)N2CCCCCC2)cc1N(C)S(=O)(=O)c1ccc(Cl)cc1 | 4.46%
24 | Cc1cc(C)nc(NS(=O)(=O)c2ccc(NC(=O)c3ccc4c(c3)OCO4)cc2)n1 | -0.197%
